Experimental data from article PMC1479839 (2006).

Target: T1, extracellular domain of the IL-13 receptor α1-chain (UniProt P78552 22-343)
T1 chain: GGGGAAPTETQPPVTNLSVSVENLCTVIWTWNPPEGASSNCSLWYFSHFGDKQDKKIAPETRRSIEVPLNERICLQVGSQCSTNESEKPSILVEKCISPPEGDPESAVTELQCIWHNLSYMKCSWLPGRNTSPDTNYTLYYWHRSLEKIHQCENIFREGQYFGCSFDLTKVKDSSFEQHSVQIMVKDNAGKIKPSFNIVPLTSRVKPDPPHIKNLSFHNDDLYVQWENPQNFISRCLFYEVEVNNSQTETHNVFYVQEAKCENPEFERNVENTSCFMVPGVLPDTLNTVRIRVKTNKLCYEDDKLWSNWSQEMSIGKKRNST
Test: SPR

Kd: 30 nM
B1: human interleukin 13 (wild type) (ligand)
chain: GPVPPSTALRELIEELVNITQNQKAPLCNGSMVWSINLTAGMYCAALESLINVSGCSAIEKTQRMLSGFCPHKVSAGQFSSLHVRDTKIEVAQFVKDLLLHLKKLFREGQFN
